From patent publication US20230413811A1 (priority 2020, published 2023)

System: Z. tritici IPO323
Conditions: for 5×IC100: Z. tritici, fungicide amended plates used to confirm resistant colonies

Row | Compound | 5×IC100 | inhibition of plate growth, times better than ODS-I
1 | CO/C=C(/C(=O)OC)c1ccccc1Oc1cc(Oc2ccccc2C#N)ncn1 [Azoxystrobin] | 1.5 µg/mL | –
2 | Cn1cc(C(=O)Nc2ccccc2-c2cc(F)c(F)c(F)c2)c(C(F)F)n1 [Fluxapyroxad] | 3.0 µg/mL | –
3 | CCCCCCCCCCCCCCCCCC[S+](C)C.[Cl-] [ODS-Cl, octadecyl dimethyl sulfonium chloride] | – | ~2.5 times
